Test results from US20200179511A1, “BCMA-TARGETING AGENT, AND COMBINATION THERAPY WITH A GAMMA SECRETASE INHIBITOR” (Novartis AG, priority 2017, published 2020).

System: KMS 11
Test: RTCC assay, BCMA×CD3 or control CD3 bispecific antibody with or without GSI, BCMA-expressing target cells (Example 3, FIGS. 9A-9B, Table 5)
Format: cell-based, human
Conditions: KMS11
Procedure: Peripheral blood mononuclear cells (PBMCs) were isolated from the blood of healthy human donors using a Ficoll-Paque PLUS (GE Healthcare #17-1440-02) density gradient. T-cells (pan) were isolated from the PBMC fraction by negative selection (Miltenyi #130-096-535, 130-041-407, 130-042-401) and aliquots stored in liquid nitrogen in CryoStor10 solution (HemaCare #210374).
Target cells were plated 7,500 cells per well in a 384 well plate (Costar 3765). Cells were treated with or without a gamma secretase inhibitor (GSI, comparison of 3 different compounds) for 30 minutes prior to the addition of 22,500 thawed T-cells, and a serial dilution of BCMA×CD3 bispecific or negative control CD3 bispecific antibodies ranging from 100 nM to 0.1 pM. The base assay media (TCM, or T cell Medium) contains RPMI/1640, 10% FBS, 2 mM L-glutamine, 0.1 mM Non-essential amino acids, 1 mM Sodium pyruvate, 10 mM HEPES, 0.055 mM 2-mercaptoethanol (Gibco 22400089, 16140, 25030-081, 11140-050, 11360-070, 15630-080, 21985-023 respectively). The final concentration of all gamma secretase inhibitors was 2 μM. The assay was incubated at 37° C./5% CO2 for 48 hours, followed by measurements of target cell viability (BrightGlo, Promega # E2650), following vendor supplied protocols. Analysis was done using Graphpad Prism software.

B1: FP31: BCMA×CD3 bispecific antibody of Example 3; SEQ ID NOs: 1157-1160 (protein)
chain 1: DIVMTQSPDSLAVSLGERATINCKSSQSLFNVRSRKNYLAWYQQKPGQPPKLLISWASTRESGVPDRFSGSGSGTDFTLTISSLQAEDVAVYYCKQSYDLFTFGSGTKLEIKRTVAAPSVFIFPPSDEQLKSGTASVVCLLNNFYPREAKVQWKVDNALQSGNSQESVTEQDSKDSTYSLSSTLTLSKADYEKHKVYACEVTHQGLSSPVTKSFNRGEC
chain 2: EIVLTQSPGTLSLSPGERATLSCRASQSVSSSYLAWYQQKPGQAPRLLMYDASIRATGIPDRFSGSGSGTDFTLTISRLEPEDFAVYYCQQYQSWPLTFGQGTKVEIKRTVAAPSVFIFPPSDEQLKSGTASVVCLLNNFYPREAKVQWKVDNALQSGNSQESVTEQDSKDSTYSLSSTLTLSKADYEKHKVYACEVTHQGLSSPVTKSFNRGEC
chain 3: EVQLLESGGGLVQPGGSLRLSCAASGFTFSSYPMSWVRQAPGKGLEWVSAIGGSGGSLPYADSVKGRFTISRDNSKNTLYLQMNSLRAEDTAVYYCARYWPMDIWGQGTLVTVSSASTKGPSVFPLAPCSRSTSESTAALGCLVKDYFPEPVTVSWNSGALTSGVHTFPAVLQSSGLYSLSSVVTVPSSNFGTQTYTCNVDHKPSNTKVDKTVERKCEVECPECPAPPVAGPSVFLFPPKPKDTLMISRTPEVTCVVVAVSHEDPEVQFNWYVDGVEVHNAKTKPREEQFNSTFRVVSVLTVVHQDWLNGKEYKCKVSNKGLPSSIEKTISKTKGQPREPQVYTLPPSREEMTKNQVSLTCEVKGFYPSDISVEWESNGQPENNYKTTPPMLDSDGSFFLYSKLTVDKSRWQQGNVFSCSVMHEALHNHYTQKSLSLSPGK
chain 4: EVQLVESGGGLVQPGGSLRLSCAASGFTFSDYYMTWVRQAPGKGLEWVAFIRNRARGYTSDHNASVKGRFTISRDNAKNSLYLQMNSLRAEDTAVYYCARDRPSYYVLDYWGQGTTVTVSSASTKGPSVFPLAPCSRSTSESTAALGCLVKDYFPEPVTVSWNSGALTSGVHTFPAVLQSSGLYSLSSVVTVPSSNFGTQTYTCNVDHKPSNTKVDKTVERKCRVRCPRCPAPPVAGPSVFLFPPKPKDTLMISRTPEVTCVVVAVSHEDPEVQFNWYVDGVEVHNAKTKPREEQFNSTFRVVSVLTVVHQDWLNGKEYKCKVSNKGLPSSIEKTISKTKGQPREPQVYTLPPSREEMTKNQVSLTCLVKGFYPSDISVEWESNGQPENNYKTTPPMLDSDGSFFLYSRLTVDKSRWQQGNVFSCSVMHEALHNHYTQKSLSLSPGK
- effect of gamma secretase inhibitor treatment on potency of bispecific antibody in RTCC (GSI 2 μM, 48 hours, FIG. 9A): enhance the potency
- improvement of bispecific antibody potency by GSI (three separate gamma secretase inhibitors): ~50 fold
